# Reference: the RNAGym collection of RNA variant scans (doi:10.7554/elife.90254)
# Read counts are not given, so values of variants with three or more changes are uncertain.
# B1: LINE1-mini (parent)
# chain: GGCAGAGCUCAACACAGCGUGGCAAAGUGGCUGUGGCUAGACUGCC
# Variants of: B1
# Experiment: self-cleavage, relative activity (ratio to wild type); higher = more cleavage; in vitro, sequencing; the parent is a self-cleaving ribozyme
row,Variant,self-cleavage
1,CGCAGAGCUCAACACAGCGUGGGAAAGUGGCUGUGGCUAGACUUCC [G1C C23G G44U],0.11
2,GGCAGAGCUCAACACAGCGUGGCAAAGCGGCAGUGGCUAGACUACC [U28C U32A G44A],0.15
3,GGCAGAGCUCAACACAGCGUGGCAACGUGGCUGUGGCAAGACUACC [A26C U38A G44A],0.07
4,GGCAGAGUUCAGCACAGCGUGGCAAAGUGGCUAUGGCGAGACUGCC [C8U A12G G33A U38G],0.02
5,GGCAGAGUUCAACAAAGCGUGGCACAGGGGCUGUGGCUAGACUGAG [C8U C15A A25C U28G C45A C46G],0.1
6,GGCAGACCUCAACACAGCGUGGCAAAUUGGCUGUGGCUAGACAGCC [G7C G27U U43A],0.04
7,UGCAGAGCUCAACUCAGCGUGCCAAACUGUCUGUGGCUAGACUGCC [G1U A14U G22C G27C G30U],0.21
8,GGCAGAAGGCAACAUAGCGUGGCAAACUCGCUGUGGCUAGACUGCC [G7A C8G U9G C15U G27C G29C],0.01
9,GCCAGAACUCAACACAGGGUGGCACAGUGGCUGUGGCUAGACUGCC [G2C G7A C18G A25C],0.08
10,GGCAGAGCUCAUGACAGAGUGGCAAAGUGGCUGUGGCUAGACUGCC [A12U C13G C18A],0.08
11,GGCAGAGAUCAACACAGCGUGGCAAAGUGGCUGAGGCUGGACUGGC [C8A U34A A39G C45G],0.09
12,GGGAGAGCUCAACACAGCGUGGCAGAGUGGCUGGGGCUAGACUGCC [C3G A25G U34G],0.13
13,GGCAGAUCUCAACACAGCGUGGCAAAGUGGCUGCGGCUAGACUGCU [G7U U34C C46U],0.06
14,GGCAGAGCUCAACACAACGUGGCAAUAUGGCUGUGGCUAGACUGCC [G17A A26U G27A],0.1
15,GGCAGAGCUCAACACAGCGUGGCAUAGUGGCUCUGGCUAGACUGUC [A25U G33C C45U],0.03
16,GGCUGAGCUCUACACAGCGAGGGAAAGUGGAUGUGGCUAGCCUGCC [A4U A11U U20A C23G C31A A41C],0.01
17,GGCAGGGCUCAACGCAGCGUGGCAAGGUGGCUGUGGCUAGACUGCC [A6G A14G A26G],0.02
18,GGCAGAGCUCAACACGGCGUGGCAAAGUGGCUGGGGCUAGACUGCU [A16G U34G C46U],0
19,GGCAGAGCGCAACACAUCGUGGCAAAUUUGUUGUGGCUAGACUGCC [U9G G17U G27U G29U C31U],0.08

row,Variant,self-cleavage
1,GGCAGAUCUCAACACAGCGUGGCAAAGUCUCUGUGGCUAGACUGCC [G7U G29C G30U],0.06
2,AGCAGACCUCAACGCAGCGUGGCAAAGUGGCUGUGGUUGGACUGCC [G1A G7C A14G C37U A39G],0
3,GGCACAGCUCAACACAGCGUGGCAAAGUGCCUGUGACUAGACUGCC [G5C G30C G36A],0.06
4,GGCAGAGCUCAACACAGCAUGGCAAAGUGGCUGUGGCUAGCCUGAC [G19A A41C C45A],0.06
5,GGCAAAGCUCAACGCGGCGUGGGAAAGUGGCUGUGGCUAGACUGCC [G5A A14G A16G C23G],0.01
6,GGCAAAGCUCAAAACAACGUGGAAAAGUGCCUGUGGCUAGUCUCCC [G5A C13A G17A C23A G30C A41U G44C],0.01
7,GGCAGUGCACAACACAGCGUGGCUAAGUGGCUGUGGCUAGACUGCC [A6U U9A A24U],0.05
8,GGCAGAGCUCAACACAGCAUGGCAAAGUGGCUGUGCAUAGACUGGC [G19A G36C C37A C45G],0.06
9,GGCAGAGCUCUACAUAGCGUGGCAGAGUGGCUGUGGCUAGACUGCC [A11U C15U A25G],0.05
10,GGCAGAGCUCAACAUAGCGUAGGAAAGUGGCUGUGGCUAGACUGCC [C15U G21A C23G],0.13
11,GGCAGAGAUCAACACAGCGUUCCAAAGUGGGUGUGGCUAGACUGCC [C8A G21U G22C C31G],0.09
12,GGCAGAGCUCAACCCAGCGUGGCAAAGUGGCUGAGCUUAGACUGCC [A14C U34A G36C C37U],0.02
13,GGCAGGGCUCGACACAGCCUGGCAAAAUGGCUGUGGCUAGACUGCC [A6G A11G G19C G27A],0.12
14,GCCAGAGCUCAACACAGCAUGGCAAAGUGGCUGUGGCUAGACUGGC [G2C G19A C45G],0.8
15,GGCAGUGCUCAACACAGCGUGGCAAAGUGGCUGUGGGUAAACUGCC [A6U C37G G40A],0.1
16,GUCAGAGCUCAACACAGUGUGGCACAGUGGCUGUGGCUAGGCUGCC [G2U C18U A25C A41G],0.04
17,GGCAGAUCUCAACACAGCGUGCCAUAGUGGCUGUGGCAAGACUGCC [G7U G22C A25U U38A],0.08
18,GCCAGAGCUCAACACCGCUUGGCAAAGUGGCUGUGGCUAGACUGCC [G2C A16C G19U],0.3
19,GGCAGAGCUCGACACAGCAAGUCAAAGUGGCUGUGGCUAGACUGCC [A11G G19A U20A G22U],0.01

row,Variant,self-cleavage
1,GGCAGAGCUCAACACAGCGUGACAAGGUGGCUGUGGCUACACUGCC [G22A A26G G40C],0.04
2,GGGAGAGCUCAACACAGCGUGGCAAAGUGGCUAUGGCUAAACUGCC [C3G G33A G40A],0.07
3,GGCAGAACUCAACACAGCGUGACCAAGUGGCUGUGGCUAGACUGCC [G7A G22A A24C],0.15
4,GGCAGAGCUCAACACAGCGUGGCAAAGGGGCGGAGUCUAGACUGCC [U28G U32G U34A G36U],0.03
5,GGCACAGCUCAACACAGAGUUGCAAAGUGGCUGUGGCUAGAUUGCC [G5C C18A G21U C42U],0.01
6,GGCAGAAAUCAACACAGCGUGGCAAAGUGGCUGUCGCUAGACUGCC [G7A C8A G35C],0.25
7,GGCAGAGCUCCACACAGCGUGACAAAGUGGCGGUGGCUAGACUGCC [A11C G22A U32G],0
8,GGCAGAGCUCAACACGGCGGGGCAAAGUGGCUGUGGCUAGAUUGCC [A16G U20G C42U],0.03
9,GGCAGAGCUCAACACAGCGUGGCCAUGUGCGUGGGGCUAGACUUCC [A24C A26U G30C C31G U34G G44U],0.02
10,GGCAGAGCUCAACACAGAAUGGAAAAGUGGCUGUGGCUAGACUGCC [C18A G19A C23A],1.26
11,GGCGGAGCUCAACACAGCGCGGCAAAGUGACUGUGGCUGGACUGCC [A4G U20C G30A A39G],0.03
12,GGCAGAGCUCAACACAGCGUGGCUAAGUGGCUGUGGCUAGCCCGCC [A24U A41C U43C],0.17
13,GGCAGAUCUCAACAGAGCGUGGCAAAGUGGCUGUGGCUAGACUGUG [G7U C15G C45U C46G],0.06
14,GGCACAACUCAACGCAACGUGGCAAAGUGGCUGUGUCUAGACUGCC [G5C G7A A14G G17A G36U],0.03
15,GGCAGAGGUCAACACGGCGUGGCAAAGUGACUGUGGCUAGACUGCC [C8G A16G G30A],0.19
16,GGCAGAGCUCAACACAGCGGGGCUAAGUGGCGGUGGCUAGACUGCC [U20G A24U U32G],0.01
17,AGCAUAGCUCAACACAGCGUGGAAAAGUGGCUGUGGCUAGAUUUCC [G1A G5U C23A C42U G44U],0.15
18,GGCAGAGCUCAACACAGCGUGGCAGAGUGGCUGUCACUAGUCUGCC [A25G G35C G36A A41U],0.17
